Binding data for seven molecules are collected here from PMC3579931.

By UniProt entry, the sequences of proteins in these tests, tags left out.
UniProt P46737: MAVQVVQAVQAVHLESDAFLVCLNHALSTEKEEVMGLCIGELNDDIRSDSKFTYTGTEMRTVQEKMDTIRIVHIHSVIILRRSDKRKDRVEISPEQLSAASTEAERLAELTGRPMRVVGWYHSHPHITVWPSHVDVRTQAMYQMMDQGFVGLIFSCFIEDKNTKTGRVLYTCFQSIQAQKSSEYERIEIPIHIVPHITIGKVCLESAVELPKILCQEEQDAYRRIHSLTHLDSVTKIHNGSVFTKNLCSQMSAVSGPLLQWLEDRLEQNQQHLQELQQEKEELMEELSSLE
UniProt Q80V62: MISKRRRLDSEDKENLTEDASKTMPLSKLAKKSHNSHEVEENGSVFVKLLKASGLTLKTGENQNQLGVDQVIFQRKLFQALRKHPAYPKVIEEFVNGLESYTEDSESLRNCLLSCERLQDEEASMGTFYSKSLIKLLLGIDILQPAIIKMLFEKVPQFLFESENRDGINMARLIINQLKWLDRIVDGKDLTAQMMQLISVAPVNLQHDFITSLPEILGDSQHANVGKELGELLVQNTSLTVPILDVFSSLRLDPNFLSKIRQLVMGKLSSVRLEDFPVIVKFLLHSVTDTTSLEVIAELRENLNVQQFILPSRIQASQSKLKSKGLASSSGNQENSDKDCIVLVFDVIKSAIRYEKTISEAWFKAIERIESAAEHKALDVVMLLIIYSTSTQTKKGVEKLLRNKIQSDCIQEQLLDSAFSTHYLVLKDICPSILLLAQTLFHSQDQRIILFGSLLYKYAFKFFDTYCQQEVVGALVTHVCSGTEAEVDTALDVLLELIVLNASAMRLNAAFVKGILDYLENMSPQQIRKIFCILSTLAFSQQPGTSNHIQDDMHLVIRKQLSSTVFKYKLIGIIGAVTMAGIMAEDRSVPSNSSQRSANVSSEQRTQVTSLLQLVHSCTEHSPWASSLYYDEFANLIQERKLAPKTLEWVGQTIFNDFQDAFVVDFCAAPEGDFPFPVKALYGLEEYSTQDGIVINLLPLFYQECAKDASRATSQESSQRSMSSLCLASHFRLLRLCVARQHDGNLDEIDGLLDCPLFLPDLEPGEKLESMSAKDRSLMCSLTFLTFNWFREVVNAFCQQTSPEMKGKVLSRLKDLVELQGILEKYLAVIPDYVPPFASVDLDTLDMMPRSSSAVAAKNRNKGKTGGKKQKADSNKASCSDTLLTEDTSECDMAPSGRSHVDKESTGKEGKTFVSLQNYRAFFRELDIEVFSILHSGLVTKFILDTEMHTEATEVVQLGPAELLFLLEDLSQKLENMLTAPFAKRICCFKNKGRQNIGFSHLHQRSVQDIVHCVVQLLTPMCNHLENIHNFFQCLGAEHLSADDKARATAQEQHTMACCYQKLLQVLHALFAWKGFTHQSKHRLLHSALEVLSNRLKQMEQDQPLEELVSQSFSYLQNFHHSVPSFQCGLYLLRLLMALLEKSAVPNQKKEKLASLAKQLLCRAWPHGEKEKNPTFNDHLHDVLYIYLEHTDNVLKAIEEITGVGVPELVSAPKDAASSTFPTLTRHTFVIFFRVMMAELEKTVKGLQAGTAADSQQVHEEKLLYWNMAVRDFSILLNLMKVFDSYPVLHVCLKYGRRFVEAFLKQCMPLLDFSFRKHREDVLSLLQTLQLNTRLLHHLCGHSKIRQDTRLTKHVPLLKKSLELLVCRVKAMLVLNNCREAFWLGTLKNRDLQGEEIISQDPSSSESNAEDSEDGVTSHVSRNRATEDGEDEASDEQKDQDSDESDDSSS
UniProt P48754: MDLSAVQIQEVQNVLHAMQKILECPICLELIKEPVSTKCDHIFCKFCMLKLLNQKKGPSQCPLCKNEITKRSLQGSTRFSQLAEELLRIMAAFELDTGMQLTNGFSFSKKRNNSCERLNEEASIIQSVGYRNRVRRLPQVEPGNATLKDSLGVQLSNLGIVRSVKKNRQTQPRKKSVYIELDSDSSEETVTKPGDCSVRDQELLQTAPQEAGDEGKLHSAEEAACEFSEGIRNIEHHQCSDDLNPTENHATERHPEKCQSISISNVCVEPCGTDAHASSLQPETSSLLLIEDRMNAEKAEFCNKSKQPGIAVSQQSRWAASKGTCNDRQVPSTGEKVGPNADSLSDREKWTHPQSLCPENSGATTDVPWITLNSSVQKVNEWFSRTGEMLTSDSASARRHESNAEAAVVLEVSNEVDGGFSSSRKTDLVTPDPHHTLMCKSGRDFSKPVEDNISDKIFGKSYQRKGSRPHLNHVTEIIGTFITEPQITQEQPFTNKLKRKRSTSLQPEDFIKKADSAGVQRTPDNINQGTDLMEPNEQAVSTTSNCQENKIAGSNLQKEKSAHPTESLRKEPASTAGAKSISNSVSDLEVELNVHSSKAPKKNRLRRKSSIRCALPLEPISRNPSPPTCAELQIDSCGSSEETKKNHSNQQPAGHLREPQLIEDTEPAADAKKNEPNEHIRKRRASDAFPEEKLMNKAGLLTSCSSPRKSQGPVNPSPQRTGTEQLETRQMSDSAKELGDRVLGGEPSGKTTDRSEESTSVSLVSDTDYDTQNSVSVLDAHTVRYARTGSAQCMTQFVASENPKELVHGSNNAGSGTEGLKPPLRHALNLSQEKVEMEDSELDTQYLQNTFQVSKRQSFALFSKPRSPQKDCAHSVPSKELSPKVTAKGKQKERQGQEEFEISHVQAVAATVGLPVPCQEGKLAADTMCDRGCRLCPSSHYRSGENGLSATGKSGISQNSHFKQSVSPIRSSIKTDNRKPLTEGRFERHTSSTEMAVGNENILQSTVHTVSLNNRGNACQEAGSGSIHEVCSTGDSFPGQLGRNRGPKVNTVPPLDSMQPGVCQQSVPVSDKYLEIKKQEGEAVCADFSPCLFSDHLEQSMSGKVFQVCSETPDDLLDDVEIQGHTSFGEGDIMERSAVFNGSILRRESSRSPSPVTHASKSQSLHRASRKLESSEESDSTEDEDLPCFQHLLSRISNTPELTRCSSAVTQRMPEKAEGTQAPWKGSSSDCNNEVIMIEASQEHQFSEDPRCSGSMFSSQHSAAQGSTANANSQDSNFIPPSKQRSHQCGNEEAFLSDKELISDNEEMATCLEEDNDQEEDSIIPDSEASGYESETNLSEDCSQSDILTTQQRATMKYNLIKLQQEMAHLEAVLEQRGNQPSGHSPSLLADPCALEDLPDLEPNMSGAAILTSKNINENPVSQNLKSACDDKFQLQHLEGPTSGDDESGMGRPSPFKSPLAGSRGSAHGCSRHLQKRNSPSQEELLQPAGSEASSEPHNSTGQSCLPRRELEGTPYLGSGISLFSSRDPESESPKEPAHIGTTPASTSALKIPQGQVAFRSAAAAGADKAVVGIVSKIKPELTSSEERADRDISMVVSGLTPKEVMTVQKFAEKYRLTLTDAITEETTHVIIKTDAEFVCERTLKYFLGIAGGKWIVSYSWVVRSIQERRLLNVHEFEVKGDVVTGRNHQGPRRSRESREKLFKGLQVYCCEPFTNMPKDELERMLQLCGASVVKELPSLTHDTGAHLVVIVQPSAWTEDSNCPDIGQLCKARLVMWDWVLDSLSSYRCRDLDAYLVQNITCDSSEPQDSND

Like-named read-outs stand apart in the source and are kept apart here. No constants are given. Whether binding was seen depends on the method and setting. Binding seen in cells or lysates may run through a third protein. Some entries that bind do so weakly or less than the wild type.

Assay [1] deals with T1, Gametogenetin isoform GGN1 (mouse (endogenous in testis)) (UniProt Q80WJ1).
T1 sequence: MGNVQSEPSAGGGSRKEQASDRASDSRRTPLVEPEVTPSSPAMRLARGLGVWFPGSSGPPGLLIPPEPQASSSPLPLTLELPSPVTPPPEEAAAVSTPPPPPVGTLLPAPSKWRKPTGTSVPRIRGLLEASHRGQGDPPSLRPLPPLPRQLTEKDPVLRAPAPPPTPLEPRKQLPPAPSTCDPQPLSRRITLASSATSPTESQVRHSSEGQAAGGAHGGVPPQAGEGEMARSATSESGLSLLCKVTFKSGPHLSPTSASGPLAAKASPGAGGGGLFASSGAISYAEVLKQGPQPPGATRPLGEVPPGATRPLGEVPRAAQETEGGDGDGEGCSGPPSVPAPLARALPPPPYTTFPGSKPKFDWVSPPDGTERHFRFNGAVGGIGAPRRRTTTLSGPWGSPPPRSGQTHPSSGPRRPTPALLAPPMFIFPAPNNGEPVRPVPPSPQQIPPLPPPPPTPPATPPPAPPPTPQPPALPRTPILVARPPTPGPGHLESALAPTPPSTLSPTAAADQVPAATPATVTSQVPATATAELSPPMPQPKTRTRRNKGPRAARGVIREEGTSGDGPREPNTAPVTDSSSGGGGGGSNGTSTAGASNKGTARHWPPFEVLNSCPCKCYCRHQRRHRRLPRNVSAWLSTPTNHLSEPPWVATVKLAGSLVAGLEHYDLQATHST
Description: co-IP; goat GGN1 antibody conjugated to resin (AminoLink Plus), control goat IgG column; 4 mg postnatal day 20 mouse testis extract (50 mM Tris-HCl, 150 mM NaCl, 1% NP-40, 2 mM MgCl2, benzonase), overnight at 4°C; washed with PBS, eluted with 0.1 M glycine pH 2.7; immunoblot of eluates. Background: Immunoblotting shows a protein as a band on a membrane.

The target of assay [2] is BRCC36 (BRCA1/BRCA2-containing complex, subunit 3) (mouse (endogenous in testis)) (UniProt P46737). As to the kind of experiment: co-IP; reciprocal IP: BRCC36 antibody column, mouse testis extract, done as the GGN1 IP; immunoblot for GGN1.
For assay [3], the target named is T1, Gametogenetin isoform GGN1 (mouse (endogenous in testis)). As to the kind of experiment: co-IP; goat GGN1 antibody conjugated to resin (AminoLink Plus), control goat IgG column; 4 mg postnatal day 20 mouse testis extract (50 mM Tris-HCl, 150 mM NaCl, 1% NP-40, 2 mM MgCl2, benzonase), overnight at 4°C; washed with PBS, eluted with 0.1 M glycine pH 2.7; immunoblot of eluates. The source holds these as a separate data set.

For the molecule “BRCC36 (BRCA1/BRCA2-containing complex, subunit 3) (from UniProt P46737 1-291)”, the binding result in assay [1] is “binds”.

Turning to FANCD2 (from UniProt Q80V62 1-1450), the binding result in assay [1] is “binds”.

Turning to BRCA1 (from UniProt P48754 1-1812), the binding entry in assay [1] is reported as “no binding”.

B1: Gametogenetin isoform GGN1 (protein, UniProt Q80WJ1-1 1-673)
chain: MGNVQSEPSAGGGSRKEQASDRASDSRRTPLVEPEVTPSSPAMRLARGLGVWFPGSSGPPGLLIPPEPQASSSPLPLTLELPSPVTPPPEEAAAVSTPPPPPVGTLLPAPSKWRKPTGTSVPRIRGLLEASHRGQGDPPSLRPLPPLPRQLTEKDPVLRAPAPPPTPLEPRKQLPPAPSTCDPQPLSRRITLASSATSPTESQVRHSSEGQAAGGAHGGVPPQAGEGEMARSATSESGLSLLCKVTFKSGPHLSPTSASGPLAAKASPGAGGGGLFASSGAISYAEVLKQGPQPPGATRPLGEVPPGATRPLGEVPRAAQETEGGDGDGEGCSGPPSVPAPLARALPPPPYTTFPGSKPKFDWVSPPDGTERHFRFNGAVGGIGAPRRRTTTLSGPWGSPPPRSGQTHPSSGPRRPTPALLAPPMFIFPAPNNGEPVRPVPPSPQQIPPLPPPPPTPPATPPPAPPPTPQPPALPRTPILVARPPTPGPGHLESALAPTPPSTLSPTAAADQVPAATPATVTSQVPATATAELSPPMPQPKTRTRRNKGPRAARGVIREEGTSGDGPREPNTAPVTDSSSGGGGGGSNGTSTAGASNKGTARHWPPFEVLNSCPCKCYCRHQRRHRRLPRNVSAWLSTPTNHLSEPPWVATVKLAGSLVAGLEHYDLQATHST
For B1, the binding result in assay [2] is reported as “binds”.

B2: FANCI (protein, UniProt Q8K368 1-1330)
chain: MDLKILSLATDKTTDKLQEFLQTLKDDDLASLLQNQAVKGRAVGTLLRAVLKGSPCSEEDGALRRYKIYSCCIQLVESGDLQQDVASEIIGLLMLEVHHFPGPLLVDLASDFVGAVREDRLVNGKSLELLPIILTALATKKEVLACGKGDLNGEEYKRQLIDTLCSVRWPQRYMIQLTSVFKDVCLTPEEMNLVVAKVLTMFSKLNLQEIPPLVYQLLVLSSKGSRRSVLDGIIAFFRELDKQHREEQSSDELSELITAPADELYHVEGTVILHIVFAIKLDCELGRELLKHLKAGQQGDPSKCLCPFSIALLLSLTRIQRFEEQVFDLLKTSVVKSFKDLQLLQGSKFLQTLVPQRTCVSTMILEVVRNSVHSWDHVTQGLIEFGFILMDSYGPKKILDGKAVEIGTSLSKMTNQHACKLGANILLETFKIHEMIRQEILEQVLNRVVTRTSSPINHFLDLFSDIIMYAPLILQNCSKVTETFDYLTFLPLQTVQGLLKAVQPLLKISMSMRDSLILVLRKAMFASQLDARKSAVAGFLLLLKNFKVLGSLPSSQCTQSIGVTQVRVDVHSRYSAVANETFCLEIIDSLKRSLGQQADIRLMLYDGFYDVLRRNSQLASSIMQTLFSQLKQFYEPEPDLLPPLKLGACVLTQGSQIFLQEPLDHLLSCIQHCLAWYKSRVVPLQQGDEGEEEEEELYSELDDMLESITVRMIKSELEDFELDKSADFSQNTNVGIKNNICACLIMGVCEVLMEYNFSISNFSKSKFEEILSLFTCYKKFSDILSEKAGKGKAKMTSKVSDSLLSLKFVSDLLTALFRDSIQSHEESLSVLRSSGEFMHYAVNVTLQKIQQLIRTGHVSGPDGQNPDKIFQNLCDITRVLLWRYTSIPTSVEESGKKEKGKSISLLCLEGLQKTFSVVLQFYQPKVQQFLQALDVMGTEEEEAGVTVTQRASFQIRQFQRSLLNLLSSEEDDFNSKEALLLIAVLSTLSRLLEPTSPQFVQMLSWTSKICKEYSQEDASFCKSLMNLFFSLHVLYKSPVTLLRDLSQDIHGQLGDIDQDVEIEKTDHFAVVNLRTAAPTVCLLVLSQAEKVLEEVDWLIAKIKGSANQETLSDKVTPEDASSQAVPPTLLIEKAIVMQLGTLVTFFHELVQTALPSGSCVDTLLKGLSKIYSTLTAFVKYYLQVCQSSRGIPNTVEKLVKLSGSHLTPVCYSFISYVQNKSSDAPKCSEKEKAAVSTTMAKVLRETKPIPNLVFAIEQYEKFLIQLSKKSKVNLMQHMKLSTSRDFKIKGSVLDMVLREDEEDENEEGTASAHTQQDREPAKKRRKKCLS
For the molecule B2, the binding entry in assay [3] is “no binding”.

B3: FANCL (Fanconi anemia complementation group L) (protein, UniProt Q9CR14 1-375)
chain: MDEAEASLLRHFPLLLPQNREKTVYEGFISAQGSDFHLRIVLPKDLQLKKARLLCSLQLKNILNEYHQVVQQRMKHSPDLMSFMMELKMILEVALKNKQELCVQPPSCSFCKDLLTEIGAIGWDKLACVESSFSTIKLKADDASGRKHLITVKLKAKYPVEPPDCVVDFPVPFSVSWTPQSSLVDVYSQFLVALETLKVFWDVMDEIDEKTWVLEPEKPPRSATARRIALGKNVSIAIEVDPRHPTMLPEFCFLGADHVTKPLGMKLSGSIHLWDPENSLLQNLKDVLEIDFPARSILEESDFSMDCGICYARHLNGAIPDQVCNNPQCGQPFHEICLYEWLRGLSTSRQSFNVFFGDCPYCSKPITLKMSGRKP
With B3, the binding entry in assay [3] is “binds”.

B4: FANCA (protein, UniProt Q9JL70 1-1439)
chain: MPGSPARGAAMGGGPRGLRKTWTELLAGRVKKQKYDPEREQKLKDSALKLLRYHQNMHDLLLEVEEPQCKRLRLSELIDRDSADASSDRSASFIRSAFRDQASRLGVPVGVLSAKVFARSVQQVCVEPSHPVLLSPEQSKKLSSLLMIARHLLAQNMFSRLTFCQELWKAQNSLLLEAMWRLHTHSVVSLQELLQSHPDSEAMAMWLFRNLRSLCEQIGASCPSPDTTEAMLSGLVQLLISRGFQGSSDPRRLVEPERLPQVATDVLQRMLAFSLDTLEADPQTTLDCQAVSGWIPIYSGHTCCGVVTENSLKSFFSHTLTQILTHKPVLKVSDAIQMQKEWSFAKTHHLLTDLHCRVLATLGPEESVGRLQEVLEMQEVNWQHVLSCVSTLVVCFPEAQQLVKGWVASLMARAFESYHLDSMVTAFLIVRQATLEGPYVFPSYADWFKESFGSSHGYHSCSKKTLVFLFKFLSDLVPWEAPRYMQVHIFHPPLVPSKYHSLLTDYISLAKTRLADLKVSLENVGLYEDLSSPGDIAERESQAVQDVKKAIMVFEQTGKIPMPVLEASIFRRPYYVSHFLPTLLAPRVLPEVPDPRVALIETLKRADKIPSSIYDAYRKACASAEKQQPENATSAQRTEADCAKEPLGLLTAALEELRALMTDPTQYSVISAQVAVVSEKLNAVLGHRNDGGSLQRAKIQLSVLPSTLQKQDQAVVDLLLTAFCQNLMAASSFVPPERQSPWAVLFVRTLCGHVLLPAVLTRLRQLLRHQGQSLSTSHVLGLAALAVHLGECRSMLPEVDPDVLAPSAGSLCVPDFLNSLLTCRTRDSLLFCMNFCTAAVSYCLCKFSALRNCLSPGLIKKFQFVVLRLFPEARAPCAPEHAACVPWRPLYLPSADWQRAALSLWRRDSFQELLKDKEFYLTYRDWVQLELEIQPEADVLSDMERHDFHQWAIYERYLPAPTALGGCGGDLEEACTVLVSEIMDFHQSSRSYNHSEDSDLVLGGRTGNKDILSRLQEIALDLELDQGSAVPHGCSTPQSHFLFRVFRRRLQALARPDSMATSLRRQQELLTCKRLLLCLPPSVLVGGPQAGQPISPNCGEFFSLVNSELRNFCCHGSVLTSDITIHFFRGLLRVCLRSQDPALVANQTLTECQTKCPVILTSALLWWSSLEPVLCGRWMRCYQSPLPRELRRLQEAREFASNFASASASPAPSPAWIAAAALHFAWRGVRKEDVTAHLQRLDCQREELLIALFFFSLMGLLSSYLTQRDTAEHLKAVDICAEVLTCLERRKVSWLVLFQLTEKDAKLGHLLHLAPDQHTRLLPLAFYSLLSCFSEGAAVREAAFLHVAVDMYLKLLQLFVDGETRLQGHSESQGSPVQLITKARVFLLQLIPQCPKQCFSNMTELLAGRGDCDPEVSNALRQRQQADPSFDLYQEPQLF
Turning to B4, in assay [3], the binding result is “no binding”.
